Measured values from PubChem BioAssay AID504832 (National Center for Advancing Translational Sciences (NCATS), 2011).
Where “and” joins values, the source holds several entries; their conditions need not be identical. Equal entries are not always repeated. In all, about 310,000 compounds went through this assay and about 18,000 (5.8%) were called active. The shares of active, inactive and inconclusive entries below differ from those in the screen. Calls follow the shape of the dose curve; as a rule, active = well fitted inhibition curve with a large enough effect; inconclusive = small, poorly fitted or top-dose-only effect, or another doubt; inactive = no such curve, though single readings can be large or run the other way. Where the call is inconclusive, the potency comes from a doubtful curve fit.

experiment: Primary qHTS for delayed death inhibitors of the malarial parasite plastid, 48 hour incubation; conditions: P. falciparum luciferase growth in erythrocytes; series mostly up to 28.7 µM; activity change, negative = inhibition: at the top concentration
In short: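 Compounds are pin-transferred into medium, infected erythrocytes (2% hematocrit, 0.1% parasitemia final) are added, and plates sit one parasite generation at 37 C in 5% CO2. Detection reagent is then added and luminescence measured.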
% is scaled to controls: 0 for no effect and ±100 for the full control effect; potency is read from the fitted curve at half-maximal effect; tags tell the direction and shape of the fitted curve.

| SMILES | activity change, negative = inhibition | Potency |
| --- | --- | --- |
| COc1ccc(S(=O)(=O)Nc2ccccn2)cc1 | inactive: 0% |  |
| CCCCn1c(N)c(N(CCOC)C(=O)CSc2nc3ccc(C)cc3[nH]2)c(=O)[nH]c1=O |  | inconclusive: 8.28 µM [inhibitor, partial curve] |
| N#Cc1nc(Cc2cccc3ccccc23)oc1NCCN1CCOCC1 |  | inconclusive: 7.38 µM [inhibitor, partial curve] |
| CN(c1ccccc1)P(=O)(N(C)c1ccccc1)N(C)c1ccccc1 |  | inconclusive: 18.5 µM [inhibitor, single point] |
| Cc1cc(C)cc(OCC(=O)NNC(=O)c2cc3ccccc3oc2=O)c1 |  | inconclusive: 0.37 µM [inhibitor, full curve, poor fit] |
| CCN(CC)C(=O)CSc1nc2ccc(NC(=O)CSc3nnc(N)s3)cc2s1 |  | inconclusive: 10.4 µM [inhibitor, partial curve] |
| O=C(c1ccc(C(F)(F)F)cc1)N1CCC(=O)N(C(COCc2ccccc2)Cc2ccccc2)CC1 (configuration not stated) |  | inconclusive: 14.7 µM [inhibitor, single point] |
| O=C(COC(=O)C12CC3CC(CC(C3)C1)C2)NC12CC3CC(CC(C3)C1)C2 |  | inconclusive: 18.5 µM [inhibitor, single point] |
| COc1ccccc1C(=O)COC(=O)c1ccccc1OCC(=O)Nc1ccc(SC(F)F)cc1 |  | inconclusive: 18.5 µM [inhibitor, single point] |
| O=C(N/N=C/c1cn(Cc2ccccc2)c2ccccc12)c1cccnc1 |  | inconclusive: 8.28 µM [inhibitor, partial curve, poor fit] |
| CCC(=O)N1CCN(c2ccc(NC(=O)c3ccc([N+](=O)[O-])o3)cc2Cl)CC1 |  | inconclusive: 5.86 µM [inhibitor, partial curve] |
| COC(=O)C1=C(O)/C(=C\c2cc(C)n(-c3ccc(F)cc3)c2C)N=C1C |  | inconclusive: 0.0828 µM [inhibitor, full curve] |
| CCN(CC)C(=O)c1ccc2c(=O)n(Cc3cccc(Br)c3)c(=S)[nH]c2c1 |  | inconclusive: 5.22 µM [inhibitor, partial curve] |
| Cc1cc(Cl)ccc1NC(=O)CCN1C(=O)C2CCCCC2C1=O (configuration not stated) |  | inconclusive: 16.5 µM [inhibitor, single point] |
| CCOc1ccc(NC(=O)CN(c2ccc(OCC)cc2)S(=O)(=O)c2c(C)[nH]c(=O)[nH]c2=O)cc1 | inactive: -22.5% |  |
| O=C(C1CCN(c2nnc(-n3cccc3)s2)CC1)N1CCN(c2cccc(C(F)(F)F)c2)CC1 |  | inconclusive: 13.1 µM [inhibitor, single point] |
| Cc1cccc(Nc2nc(N)c([N+](=O)[O-])c(N3CCC(C)CC3)n2)c1 |  | inconclusive: 18.5 µM [inhibitor, single point] |
| COc1ccc(-c2cc(C(=O)N3CCN(c4ncccn4)CC3)c3ccccc3n2)cc1 | inactive: 29.1% |  |
| O=C(CC1N=C(Cc2ccccc2)NNC1=O)N/N=C/c1ccc([N+](=O)[O-])cc1 (configuration not stated) | inactive: -4.14% |  |
| COc1ccc(CC2C(=O)N(C)C(=O)N(C)C2=O)c(OC)c1 | inactive: -10.1% |  |
| O=C(C/C=N/OCc1c(Cl)cccc1Cl)c1ccc(Cl)cc1 |  | inconclusive: 11.7 µM [inhibitor, single point] |
| CC(=O)N1c2ccc(S(=O)(=O)N3CCCC3)cc2CC1C(=O)Nc1cc(C)cc(C)c1 (configuration not stated) |  | inconclusive: 4.65 µM [inhibitor, partial curve] |
| O=C(CCC(=O)N1CCCc2ccccc21)N1CCN(S(=O)(=O)c2ccccc2)CC1 |  | inconclusive: 9.28 µM [inhibitor, partial curve, poor fit] |

| SMILES | activity change, negative = inhibition | Potency |
| --- | --- | --- |
| COc1ccc2c(C)cc(N3CCCCCC3)nc2c1 |  | inconclusive: 4.15 µM [inhibitor, single point] |
| COc1ccc2[nH]c(C(=O)N3CCC(n4nccc4NC(=O)C4CC4)CC3)c(C)c2c1 |  | inconclusive: 11.7 µM [inhibitor, single point] |
| Clc1ccc(C(c2ccccc2)N2CCN(c3ccccn3)CC2)cc1 (configuration not stated) |  | inconclusive: 7.38 µM [inhibitor, partial curve, poor fit] |
| CC(C)CCC1=NN(C(=O)c2ccco2)C(O)(C(F)(F)F)C1 (configuration not stated) |  | inconclusive: 9.28 µM [inhibitor, single point] |
| CC1CC(=O)Nc2ccccc2N1C(=O)COc1ccc2cc(Br)ccc2c1 (configuration not stated) |  | inconclusive: 7.38 µM [inhibitor, partial curve] |
| CC(=O)N1CCN(c2ccccc2NC(=O)c2ccc3ccccc3c2)CC1 |  | inconclusive: 16.5 µM [inhibitor, partial curve, poor fit] |
| CC(c1ccccc1)n1c(N2CCNCC2)nc2c1c(=O)[nH]c(=O)n2C (configuration not stated) |  | active: 8.28 µM |
| CCCCOc1cccc(/C=C(\C#N)C(=O)NC2CC2)c1 | inactive: 0% |  |
| Cc1ccccc1OCC(=O)Nc1ccc2c(c1)ncn2C | inactive: -39.5% |  |
| O=C(Nc1cccc(Cl)c1N1CCCC1)c1ccco1 | inactive: 9.32% |  |
| C/C(=N\NC(=O)c1cc(-c2ccc(C)s2)[nH]n1)c1ccncc1 |  | inconclusive: 11.7 µM [inhibitor, single point] |
| O=C(c1ccc(N2CCOCC2)c([N+](=O)[O-])c1)N1CCN(Cc2ccccc2)CC1 |  | inconclusive: 13.1 µM [inhibitor, partial curve, poor fit] |
| CCC(C)NC(=O)c1ccc2c(Cl)c3c(nc2c1)CCC3 (configuration not stated) | inactive: 65.5% |  |
| C[C@]12C[C@H](O)[C@H]3[C@@H](CCC4=CC(=O)CC[C@@]43C)[C@@H]1CC[C@@H]2C(=O)CO |  | inconclusive: 12 µM [inhibitor, partial curve, poor fit] and inconclusive: 7.38 µM [inhibitor, partial curve, poor fit] |
| Cn1nc(-c2ccccc2)c(C(O)c2ccccc2C(F)(F)F)c1Cl (configuration not stated) |  | inconclusive: 18.5 µM [inhibitor, single point] |
| CC(C)OCCCNC(=O)C1CCC(CNS(=O)(=O)c2ccccc2)CC1 (configuration not stated) | inactive: -6.86% |  |
| CC(NC(=O)c1ccc(N)cc1)c1ccccc1 (configuration not stated) | inactive: 9.04% |  |
| CC1CCCCN1C(=O)c1cccc(NC2=C(Cl)C(=O)N(Cc3ccccc3)C2=O)c1 (configuration not stated) |  | inconclusive: 10.4 µM [inhibitor, single point] |
| CCCCOc1ccc(/C=N/NC(=O)c2csc(C)c2C)cc1 |  | inconclusive: 5.86 µM [inhibitor, partial curve] |
| Cc1cccc(NCc2cc(Cl)ccc2O)n1 |  | active: 6.57 µM |
| Cc1ccc(C(=O)N2CCN(c3ccc(NC(=O)c4ccc5c(c4)OCCO5)cc3)CC2)cc1 |  | inconclusive: 8.28 µM [inhibitor, partial curve] |
| CCOC(=O)C1CCN(S(=O)(=O)c2ccc3c(c2)CC(C)N3C(=O)C2CC2)CC1 (configuration not stated) |  | inconclusive: 14.7 µM [inhibitor, partial curve, poor fit] |
| O=C(Cn1nnc(-c2ccc(CN3CCOCC3)cc2)n1)N1CCCc2ccccc21 |  | inconclusive: 9.28 µM [inhibitor, partial curve] |

| SMILES | activity change, negative = inhibition | Potency |
| --- | --- | --- |
| Cc1ccc(O)c(C(=O)c2cnn(-c3ccccc3)c2)c1 | inactive: 96.8% |  |
| O=C(O)CC(c1ccccc1)N1C(=O)c2cccc([N+](=O)[O-])c2C1=O (configuration not stated) | inactive: 6.94% |  |
| O=C(NCCNc1ccc(Cl)cc1[N+](=O)[O-])c1cccnc1 | inactive: -10.4% |  |
| CC12CN3CCN(CC(C3)/C1=N/NC(N)=O)C2 |  | inconclusive: 11.7 µM [inhibitor, single point] |
| O=[N+]([O-])c1cccc(NC(=S)NCCc2ccccc2)c1 |  | inconclusive: 11.7 µM [inhibitor, single point] |
| CC1(C)NC(=O)N(CC(O)COc2cc3ccccc3cc2C(=O)N2CCCCC2)C1=O (configuration not stated) |  | inconclusive: 0.262 µM [inhibitor, full curve, poor fit] |
| CC(C)Nc1cc(C(F)(F)F)nc(-c2ccccn2)n1 |  | active: 5.22 µM |
| CCOCCCNc1nc(C)nc2c1nnn2Cc1c(F)cccc1Cl |  | inconclusive: 11.7 µM [inhibitor, partial curve, poor fit] |
| N#CCSc1nc(-c2ccccc2)nc2ccc(F)cc12 | inactive: 56.7% |  |
| CC(C)C(=O)N(c1ccc2oc(=O)sc2c1)S(=O)(=O)c1cccs1 |  | inconclusive: 11.7 µM [inhibitor, partial curve, poor fit] |
| Cc1ccc(-c2c[nH]c(=S)n2-c2ccccc2)cc1 |  | inconclusive: 18.5 µM [inhibitor, single point] |
| OCCN1CCN(CCCc2c3c(cc4c2CCC4)CCC3)CC1 |  | active: 11.7 µM |
| CC(C)(N)Cc1ccc(Cl)cc1 | inactive: -9.42% |  |
| CN(Cc1cccc(C(F)(F)F)c1)C(=O)C1CCC(=O)N(CC2CCCCC2)C1 (configuration not stated) | inactive: -1.57% |  |
| COCCN(C(=O)Cn1nnc2ccccc21)C(C(=O)NC1CCCC1)c1cccc(OC)c1OC (configuration not stated) |  | inconclusive: 0.0029 µM [inhibitor, full curve, poor fit] |
| C=C(C)Cn1c(=O)c2c(nc3n2CCCN3Cc2ccccc2)n(C)c1=O |  | inconclusive: 10.4 µM [inhibitor, partial curve] |
| Clc1ccccc1-c1nn2c(-c3ccncc3)nnc2s1 |  | active: 10.4 µM |
| O=c1ccc(-c2nc3ccccc3n2Cc2ccc(Cl)cc2)c[nH]1 |  | active: 5.86 µM |
| CC(C)Sc1nc(NCc2ccco2)c2c3c(sc2n1)COC(C)(C)C3 |  | inconclusive: 9.28 µM [inhibitor, single point] |
| CCOc1cc(C(=O)Nc2cc(C)ccc2C)ccc1OCC(=O)N1CCCCC1 |  | inconclusive: 5.22 µM [inhibitor, partial curve, poor fit] |
| CCOc1cccc(-c2cc(C(=O)N/N=C/c3ccc(OC)c(CN4CCOCC4)c3)c3ccccc3n2)c1 | inactive: -21.4% |  |
